# Screen size: about 110,000 compounds; about 230 (0.21%) showed an effect of 50% or more. This is one part of the list.
# Molecular target: DPAP1 (Plasmodium falciparum, UniProt Q8IIJ9)
# Assay: primary screen, percent inhibition; read by cleavage of a fluorogenic dipeptide substrate; higher = more effect of the substance
# Design: species or system P. falciparum D10 trophozoite lysates; single well
# 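Also: 30 min substrate incubation versus DMSO and 10 µM JCP410 controls.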
# Sequence of DPAP1 (Q8IIJ9 whole entry, looked up): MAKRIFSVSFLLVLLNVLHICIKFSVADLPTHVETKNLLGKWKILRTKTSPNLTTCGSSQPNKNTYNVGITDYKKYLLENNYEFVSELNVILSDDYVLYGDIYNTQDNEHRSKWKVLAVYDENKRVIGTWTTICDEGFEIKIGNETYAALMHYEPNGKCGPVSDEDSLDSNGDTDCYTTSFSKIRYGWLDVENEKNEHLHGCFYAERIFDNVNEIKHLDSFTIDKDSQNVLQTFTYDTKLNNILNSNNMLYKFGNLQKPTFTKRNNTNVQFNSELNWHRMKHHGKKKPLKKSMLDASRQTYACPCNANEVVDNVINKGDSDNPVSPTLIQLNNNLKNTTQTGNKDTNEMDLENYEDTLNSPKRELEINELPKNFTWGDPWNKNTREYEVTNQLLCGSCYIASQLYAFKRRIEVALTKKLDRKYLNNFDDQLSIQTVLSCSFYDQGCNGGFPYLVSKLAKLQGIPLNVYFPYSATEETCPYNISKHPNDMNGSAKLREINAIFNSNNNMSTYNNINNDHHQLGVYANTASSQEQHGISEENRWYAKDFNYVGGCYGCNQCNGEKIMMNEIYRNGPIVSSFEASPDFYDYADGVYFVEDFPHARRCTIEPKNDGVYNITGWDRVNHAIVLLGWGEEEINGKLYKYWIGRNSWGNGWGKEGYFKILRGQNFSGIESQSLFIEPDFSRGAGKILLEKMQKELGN
row,SMILES,% Inhibition @ 10 uM
1,COc1ccccc1CNC(=O)c1oc2ccc(S(=O)(=O)N3CC(C)CC(C)C3)cc2c1C (stereo not shown),1.94%
2,Cc1cccc(OCCCCCn2ccnc2)c1C,-0.693%
3,O=S(=O)(NCC(c1ccccc1)N1CCOCC1)c1ccccc1 (stereo not shown),-4.07%
4,N#CC1=C(N)Oc2cc(OCc3ccccc3)ccc2C1C1CC=CCC1 (stereo not shown),2.7%
5,COc1ccc(C2C(C#N)=C(N)Oc3[nH]nc(-c4ccccc4)c32)c(CSc2ccccn2)c1 (stereo not shown),-3.02%
6,O=C(ONc1cnc2ccccc2c1)c1ccco1,7.5%
7,NS(=O)(=O)c1ccc(N2CCCC2=O)cc1,-1.86%
8,COc1ccccc1OCC(=O)Nc1nccs1,5.23%
9,COc1cc(NS(=O)(=O)c2ccccc2)c(OC)cc1Cl,-0.822%
10,C=CCCCOc1ccc(C(=O)O)cc1,4.6%
11,CCC(=O)Nc1ccc2[nH]c(C)nc2c1,-0.294%
12,CCOc1ccc(C2c3c(oc4ccccc4c3=O)C(=O)N2c2ccc(C)cn2)cc1 (stereo not shown),-3.64%
13,NC(=O)c1ccccc1NC(=O)CCCc1ccccc1,-0.68%
14,CCN1CCC(N(C)CCc2ccccc2)CC1,-3.8%
15,O=C(NCC1CCCO1)c1cc(-c2ccco2)nc2ccccc12 (stereo not shown),3.05%
16,CC(C)c1ccccc1NC(=O)CN(c1ccccc1F)S(C)(=O)=O,-2.32%
17,O=C(NC1CCCCCC1)C1CCCN1S(=O)(=O)c1cccc2cccnc12 (stereo not shown),-2.42%
18,Cc1ccc(CS(=O)Cc2ccc(C(=O)N3CCC(C(N)=O)CC3)o2)cc1 (stereo not shown),-0.0309%
19,CCc1ccccc1NC(=O)/C=C\C(=O)O,3.01%
20,COc1ccc(C(=O)O/N=C2/c3ccccc3-c3nc4ccccc4nc32)cc1,-6.41%
21,CCCCCCO/C(O)=C1\C(C)=NC(=S)NC1c1ccccc1OCC (stereo not shown),23.6%
22,COc1ccc(Cl)cc1NC(=O)c1cccc(C(=O)Nc2cc(Cl)ccc2OC)n1,2.76%
23,Cn1nc(C(=O)NCCCN2CCN(Cc3ccccc3)CC2)c2c1-c1ccccc1OC2,4.86%
24,COC(=O)c1cccc(Oc2nc3c(c(=O)n(C)c(=O)n3C)n2C(C)C)c1,-1.33%
25,COc1ccc(CN2CCN(C3CCCC(C)C3)CC2)c(OC)c1 (stereo not shown),11.6%
26,Cc1ccccc1-c1noc(-c2ccc(Br)cc2)n1,-5.11%

row,SMILES,% Inhibition @ 10 uM
1,COc1ccccc1/C=C/CNc1ccc(F)c(Cl)c1,0.472%
2,Cc1nc2c(-c3ccccc3)c(C)nn2c(C)c1CCC(=O)N1CCOCC1,-4.1%
3,CCOC(=O)c1c(C)[nH]c(C)c1S(=O)(=O)N1CCC(C(=O)Nc2cccc(C)n2)CC1,-1.23%
4,Cc1nn(CCCC(=O)NC(C)CCc2ccccc2)c(=O)c2cc3sccc3n12 (stereo not shown),3.4%
5,CCOc1ccc(-c2nc3ccccc3c(C(=O)O)c2C)cc1,-7.94%
6,O=S(=O)(c1ccc2[nH]c3c(c2c1)CCCC3)N1CCN(C2CCCCC2)CC1,-0.35%
7,O=C1N=C(N2CCCCC2)S/C1=C\c1cccc(O)c1,0.661%
8,c1ccc(-c2cc(NC3CCCC3)n3cnnc3n2)cc1,2.54%
9,C[n+]1c(/C=C2\C=CC=CN2CCO)sc2ccccc21,5.3%
10,Cc1ccc2c(NC(=O)C3CC3)c(C)ccc2n1,-0.173%
11,CN(C)CCN(C)Cc1ccc(Cl)c(Cl)c1,2.94%
12,COCCNC(=S)N1CCc2cc(OC)c(OC)cc2C1COc1ccccc1OC (stereo not shown),2.06%
13,CCOCCCNC(=O)Cn1ncc2c(=O)oc3ccccc3c21,-1.03%
14,Cc1cccc(CN2CCN(C(=O)c3cccnc3)CC2)c1,-5.7%
15,CCCCN(Cc1ccccc1)Cc1ccco1,-3.57%
16,Cn1cc(NC(=O)NCCc2ccsc2)c2ccccc2c1=O,7.86%
17,CCOC(=O)c1[nH]c2c([N+](=O)[O-])cc(OCC)cc2c1C,6.83%
18,COc1ccc(-n2c(S)nnc2CNC(=O)c2ccc(OC)cc2OC)cc1,20.8%
19,O=C(NCc1ccccn1)c1cccs1,2.22%
20,COc1cccc(NC(=O)C2CC(C)=C(C)CC2C(=O)O)c1 (stereo not shown),-1.65%
21,C1CCN(c2nc(N3CCCCC3)nc(N3CCCCC3)n2)CC1,-1.76%
22,CCCN1CCC(NCc2cccc(Br)c2)CC1,-0.603%
23,Cc1ccc(C2=N/C(=C\c3ccccc3Cl)C(=O)O2)cc1,-2.05%
24,CCOc1ccc(N2C(=O)NC(=O)/C(=C\c3ccc(N(C)C)cc3)C2=O)cc1,-0.0953%
25,COc1ccccc1C(=O)Nc1nc(-c2ccc(S(=O)(=O)N3CCCC3)cc2)cs1,0.907%
26,O=C(NCc1ccccc1F)c1ccccc1-c1ccccc1,0.0719%

# From paper PMC6919601, “Identification of Plasmodium dipeptidyl aminopeptidase allosteric inhibitors by high throughput screening” (PLoS ONE, 2019)
